Among the data in the RNAGym collection of RNA variant scans (doi:10.7554/elife.90254) are self-cleavage values, retold here.

The source gives no read counts; variants with many changes may rest on few reads.

B1: LINE1-mini (parent)
chain: GGCAGAGCUCAACACAGCGUGGCAAAGUGGCUGUGGCUAGACUGCC

The variants in the data set derive from B1. The data set is described as follows: self-cleavage, relative activity (ratio to wild type); higher = more cleavage; in vitro, sequencing; the parent is a self-cleaving ribozyme.
As for GGCAGAGCUCAACACAGCGUGGCAAGGUGGCUGGGGCUAGAUUGCC [A26G U34G C42U], the self-cleavage was determined as 0.03. In the case of GGCAGAGCUCAACACAGCGUGGCAAAUUGGUUGUGGAUGGACUGCC [G27U C31U C37A A39G], the self-cleavage is 0.04. For GGCAGAGCUCAACACAGCGUGGCAAAUUGGCUGUGGCUCGAGUGCC [G27U A39C C42G] the value was 0.02; for GGCAGAGCUCAACACAGCGUGGCAAUGUGGAUGUGGCUAGAGUGCC [A26U C31A C42G], 0.05.

GGCAGAGCUCAACACAGCGUGGCAAACUGGCUGUAUCUAGACUGCC [G27C G35A G36U]: the self-cleavage turned out to be 0.22. For GGCAGAGCUCAACACAGCGUGGCAAGAUGGCUGCGGCUAGACUGCC [A26G G27A U34C] the value was 0.05; for GGCAGAGCUCAACACAGCGUGGCAAAUAGGCUGUGGGUAGACUGCC [G27U U28A C37G], 0. For GGCAGAGCUCAACACAGCGUGGCAAUUUGGCUGUGGCUAGACUGCU [A26U G27U C46U] the value was 0.28; for GGCAGAGCUCAACACAGCGUGGCAAUGUAGCUAUGGCGAGACUGCU [A26U G29A G33A U38G C46U], 0.01; for GGCAGAGCUCAACACAGCGUGGCAAAUUGGCUGUUGCUUGACUGCC [G27U G35U A39U], 0.04. For GGCAGAGCUCAACACAGCGUGGCAAAUUGGGUGUGGCUAGAGUGCC [G27U C31G C42G] the value was 0.01. Turning to GGCAGAGCUCAACACAGCGUGGCAAACGGGCUGUGGCUAGCCUGAC [G27C U28G A41C C45A], the self-cleavage came to 0.06.

GGCAGAGCUCAACACAGCGUGGCAAAUUCGCUGUGGCUAGACCGCC [G27U G29C U43C]: the self-cleavage is 0.01.

Take GGCAGAGCUCAACACAGCGUGGCAAAAUGGCUGUGGCGAGACUGUC [G27A U38G C45U]: the self-cleavage was found to be 0.02.

With GGCAGAGCUCAACACAGCGUGGCAAAAUGGUUGUGGCUAAACUGCC [G27A C31U G40A], the self-cleavage turned out to be 0.02.

In the case of GGCAGAGCUCAACACAGCGUGGCAAAUUGGCUGUAGCUGGACUGCC [G27U G35A A39G], the self-cleavage was determined as 0.1.

With GGCAGAGCUCAACACAGCGUGGCAAAAUGGCUGUGGCCAAACUGAC [G27A U38C G40A C45A], the self-cleavage turned out to be 0.03.

In the case of GGCAGAGCUCAACACAGCGUGGCAAUAUGCCUGUGGCUAAACUGCC [A26U G27A G30C G40A], the self-cleavage came out at 0.16.

Regarding GGCAGAGCUCAACACAGCGUGGCAAACUGGCUGUAGCUAGACUUCC [G27C G35A G44U], the self-cleavage was found to be 0.05. On to GGCAGAGCUCAACACAGCGUGGCAAACUAGCUCUGGAUAGACUGCC [G27C G29A G33C C37A], for which the self-cleavage worked out at 0.04. Regarding GGCAGAGCUCAACACAGCGUGGCAAGUUGUCUGUGGCUAGACUACC [A26G G27U G30U G44A], the self-cleavage was found to be 0.11.

Turning to GGCAGAGCUCAACACAGCGUGGCAAAUAGACUGUGGCUAGACUGCC [G27U U28A G30A], the self-cleavage is 1.83. On to GGCAGAGCUCAACACAGCGUGGCAAUACGGCUGUGGAUAGACUGCC [A26U G27A U28C C37A], for which the self-cleavage was 0.15. For GGCAGAGCUCAACACAGCGUGGCAAUGGGCCUGUGGCUAGACUGCC [A26U U28G G30C] the value was 0.47; for GGCAGAGCUCAACACAGCGUGGCAAGCUUGCUGUGGCUAGACUGCC [A26G G27C G29U], 0.6. GGCAGAGCUCAACACAGCGUGGCAAUGUGGCUGUAGCUGGACUGCC [A26U G35A A39G]: the self-cleavage came to 0.11. For GGCAGAGCUCAACACAGCGUGGCAAUGUGUCUGCGGCUAGACUGCC [A26U G30U U34C] the value was 0.08. For GGCAGAGCUCAACACAGCGUGGCAAAUUGGCUGUGGCUAGGCUGCA [G27U A41G C46A] the value was 0.32; for GGCAGAGCUCAACACAGCGUGGCAAUGUGGCUGAGGCUUGACUGCC [A26U U34A A39U], 0.02. For GGCAGAGCUCAACACAGCGUGGCAAACUGGCUUCAGCUAGACUGCC [G27C G33U U34C G35A] the value was 0.19. In the case of GGCAGAGCUCAACACAGCGUGGCAAACUGGCUGUGCAUAGACUGCC [G27C G36C C37A], the self-cleavage turned out to be 0.12. For GGCAGAGCUCAACACAGCGUGGCAAAAUGGCUGUGGGUAGAUAGCC [G27A C37G C42U U43A] the value was 0.07; for GGCAGAGCUCAACACAGCGUGGCAAUGUGGCAGUGGCUAGACUCCC [A26U U32A G44C], 0.05; for GGCAGAGCUCAACACAGCGUGGCAAACUGGCUGUGGAUAGACUGGC [G27C C37A C45G], 0.01.

For GGCAGAGCUCAACACAGCGUGGCAAUGGGGCUGUGGUUAGACUGCC [A26U U28G C37U], the self-cleavage amounted to 0.03. For GGCAGAGCUCAACACAGCGUGGCAAUGUGGCUUUGGCUAGACUGUC [A26U G33U C45U] the value was 0.25; for GGCAGAGCUCAACACAGCGUGGCAAUGUGGCUGUGACUAGACGGCC [A26U G36A U43G], 0.

Regarding GGCAGAGCUCAACACAGCGUGGCAAGGUGAUUGUGGCUAGACUGCC [A26G G30A C31U], the self-cleavage was 0.21. For GGCAGAGCUCAACACAGCGUGGCAAGCUGGCUGGGGCGAGACUGCC [A26G G27C U34G U38G] the value was 0; for GGCAGAGCUCAACACAGCGUGGCAAAUUGGCUUUCGCUAGACUGCC [G27U G33U G35C], 0.02; for GGCAGAGCUCAACACAGCGUGGCAAAUUGGCUGUGGAUAGACUGCA [G27U C37A C46A], 0.04. For GGCAGAGCUCAACACAGCGUGGCAAUGUGGCUGUAGUUAGACUGCC [A26U G35A C37U] the value was 0; for GGCAGAGCUCAACACAGCGUGGCAAUUUGACUGUGGCUAGACUGCC [A26U G27U G30A], 0.17.

With GGCAGAGCUCAACACAGCGUGGCAAAAUGGCUGUAGCUAGAAUGUC [G27A G35A C42A C45U], the self-cleavage came out at 0.07.

Regarding GGCAGAGCUCAACACAGCGUGGCAAAUUGGCUCUGGCAAGACUGCC [G27U G33C U38A], the self-cleavage stood at 0.07. For GGCAGAGCUCAACACAGCGUGGCAAUCUGGCAGUCGCUAGACUGCC [A26U G27C U32A G35C] the value was 0.05; for GGCAGAGCUCAACACAGCGUGGCAAACUGGCUCUCGCUAGACUGCC [G27C G33C G35C], 0.04; for GGCAGAGCUCAACACAGCGUGGCAAUAUGGCUGUGGCUAGAAUCCC [A26U G27A C42A G44C], 0.21.

Regarding GGCAGAGCUCAACACAGCGUGGCAAUGUAGCUGUUGCUAGACUGCC [A26U G29A G35U], the self-cleavage worked out at 0.14. For GGCAGAGCUCAACACAGCGUGGCAAACUGUCUGUGGCUACACUGCC [G27C G30U G40C] the value was 0.07. For GGCAGAGCUCAACACAGCGUGGCAAAAUGGCUGUGGCUAUACUCCA [G27A G40U G44C C46A] the value was 0.23; for GGCAGAGCUCAACACAGCGUGGCAAGGUGGCUCAGGCCAGACUUCC [A26G G33C U34A U38C G44U], 0.02. For GGCAGAGCUCAACACAGCGUGGCAAAUUGGCUGUGGAUAGACUACC [G27U C37A G44A] the value was 0.01. With GGCAGAGCUCAACACAGCGUGGCAAGGUGGCUAUUGCUAUACUGCC [A26G G33A G35U G40U], the self-cleavage is 0.03. For GGCAGAGCUCAACACAGCGUGGCAAUGUGGCCGUGGCUAGAAUGCC [A26U U32C C42A] the value was 0.21. For GGCAGAGCUCAACACAGCGUGGCAAGGCGGCUGUGGCUAGUCUGCC [A26G U28C A41U] the value was 0.21.
